Experimental findings from the supplement of paper PMC11417369 are described below.

This is one part of the list.

This assay relates to PfAP2-HC AP2 domain (GST-tagged). Nature of the assay: gcPBM binding intensity (ln(normalized median fluorescence intensity)); higher = stronger DNA binding. An outline of the steps:
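GST-fused DNA-binding domains of P. falciparum, expressed in E. coli, were applied at about 25 μg on average for 1 h to an Agilent 4 × 180k array of primer-extended double-stranded 36-bp intergenic genomic probes and negative controls. Binding intensity is the highest Masliner-normalised natural-log median intensity across replicate spots of either probe orientation, measured with Alexa488 anti-GST antibody and a 488 nm scan.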
Turning to “CCCTTTTCTAAATATTGTACGTATAAATTATATTAC [XGTACX_site7676]”, the “gcPBM binding intensity (ln)” value amounted to 9.74.
As for “AGAGATTATAAAATATGTACTAAATATTAAATCTTA [XGTACX_site7050]”, the “gcPBM binding intensity (ln)” value turned out to be 9.53.
The figure for “AAAAAAATATTATAATATATATATATATATATATAT [GTGCAC_negctrl_site399]” is 9.39; for “AAAGTAAAAATATACTGTACAAATTTTTTCCCCTCT [XGTACX_site171]” it is 9.61.
The result for “AAAGAAAGCACATACACACACAAAAAAAAAAAAGAA [CACACA_site776]” reads 10.8; that for “ATTTTTTAAAAAGTAACACACACTCTTATAAATAAC [CACACA_site7668]”, 9.89.
On to “ATATTTATATACAAATGTACGCATATAATATATATA [XGTACX_site1232]”, for which the “gcPBM binding intensity (ln)” value is 9.56.
The result for “AAACAAAAAAAAAAAAAAAAAAAAAAAAAAAAAAAA [GTGCAC_negctrl_site254]” reads 8.8; that for “GATGCACTTTAAAAATGTACTTATACCTTTAATTGT [XGTACX_site6395]”, 9.66; that for “ATAACGACCTAGACGTGTACATACAAAGGAATGAAA [XGTACX_site4870]”, 10.1.
As for “CATACACATAGACACACACACATATATACCTATATA [CACACA_site6644]”, the “gcPBM binding intensity (ln)” value was found to be 10.8.
As to “GAAATGTATATTTTTACATGCAAATAAAATATATAA [TGCATGCA_site439]”, the “gcPBM binding intensity (ln)” value was 9.47.
For “ACACAATATATATATTGTACATACACATATTTACTA [XGTACX_site1872]”, the “gcPBM binding intensity (ln)” value amounted to 9.78.
Turning to “TTTTTCTTGAATCGAAGTACTTAGGAGGGGATATTT [XGTACX_site2862]”, the “gcPBM binding intensity (ln)” value turned out to be 9.83.
For the sequence “GAATATAAACATATTACACACATCTATAGGTACATT [CACACA_site6983]”, the “gcPBM binding intensity (ln)” value amounted to 10.1.
Regarding “ATAGAATCTGGTAGCTGTACGAGTCGTAGAGTGCAG [XGTACX_site2026]”, the “gcPBM binding intensity (ln)” value was 9.72.
The figure for “AATATATACATATATGTACACACATTACAGATGTAC [CACACA_site8227]” is 10; for “AGGACTAATATTTGAACACACATATAATATATACAT [CACACA_site3998]” it is 9.88.
In the case of “AGTATATAAAATACTGTATCGATGGGGGAGGGCGCA [CACACA_negctrl_site1612]”, the “gcPBM binding intensity (ln)” value is 9.91.
As to “ACAAATAAATAAAAAACACACACAAATAAATAAATA [CACACA_site8708]”, the “gcPBM binding intensity (ln)” value was 10.6.
As for “TAATAATAAAATATTTGTACATATAAAATATGGCTG [XGTACX_site7904]”, the “gcPBM binding intensity (ln)” value stood at 9.61.
The figure for “AATATAATGCAATATACACACATATATTTCTCTTTT [CACACA_site7276]” is 9.94; for “TATAAAAAATAATTATCATGAAATATATGATCATCA [TGCATGCA_negctrl_site137]” it is 9.4; for “ATTATTATTTATATGATACACACGTACATATACGCA [CACACA_site3823]” it is 9.79.
The result for “TTAAAAAAAATATAATGTACTTGTAGAATTATATTT [XGTACX_site6220]” reads 9.42; that for “TATATTTTTTATAAATGTACATGGATAGGCATAAAC [XGTACX_site8401]”, 9.75; that for “TCAAAAATGAGTTACACACACACATATATATATATA [CACACA_site2229]”, 10.6.
Regarding “ATATGAATAAATAAAAGTACATACATAATGTATTAT [XGTACX_site5969]”, the “gcPBM binding intensity (ln)” value was found to be 9.83.
For the sequence “ATATATTTATGTATCACACACAAAAAAAAAAAATAA [CACACA_site255]”, the “gcPBM binding intensity (ln)” value is 10.4.
As to “AATTTTTTTCTCCAAGTGCATTAGAACATTAACGTA [GTGCAC_site9413]”, the “gcPBM binding intensity (ln)” value turned out to be 9.3.
Consider “AATTATTGTGAAGGGAAAACAAAAAAGTTTATAATT [CACACA_negctrl_site1337]”, for which the “gcPBM binding intensity (ln)” value is 9.64.
For the sequence “AACTAATAAAAAAAAAGTACACAATATGTAAATAAC [XGTACX_site5263]”, the “gcPBM binding intensity (ln)” value came to 9.97.
Regarding “AAGCGAATATATATCACACACAAAAAAATCAGACTA [CACACA_site2108]”, the “gcPBM binding intensity (ln)” value was 9.94.
With “AACAAATATATTAACACACAAACATATAAACCAATG [CACACA_site3970]”, the “gcPBM binding intensity (ln)” value was 10.2.
Regarding “TATATATTATATATATGTACATACTTTTTACGTTCA [XGTACX_site2493]”, the “gcPBM binding intensity (ln)” value is 9.85.
In the case of “AAATTAATTAAATATACACACATATATAGATATATA [CACACA_site6321]”, the “gcPBM binding intensity (ln)” value came to 9.74.
With “ACCACATTTTTTTTTGCATGTTGTTTAAAAAAAGGC [TGCATGCA_site137]”, the “gcPBM binding intensity (ln)” value turned out to be 9.43.
Consider AGTATAAGCATTATTGTGCACATAATTATAATTTTT, for which the “gcPBM binding intensity (ln)” value is 9.78.
For the sequence “AGTTTAAATTAAATTACACACTACGAATAATATATT [CACACA_site7811]”, the “gcPBM binding intensity (ln)” value was determined as 9.6.
On to “GTTGCAATTAACACTAGTACATATAAGTAGTTTATT [XGTACX_site2063]”, for which the “gcPBM binding intensity (ln)” value stood at 9.66.
Turning to “ATTGTTCTCCAAAAGTGTACGTATTATTTTTCTGGA [XGTACX_site1404]”, the “gcPBM binding intensity (ln)” value turned out to be 9.6.
As for “TATATATTAATAAATAGTACCCGTGGAATTTATATT [XGTACX_site5855]”, the “gcPBM binding intensity (ln)” value was 9.65.
On to “AATAATGAAACAGGAAAAAAATATTGTTAAAATGTA [XGTACX_negctrl_site400]”, for which the “gcPBM binding intensity (ln)” value turned out to be 9.72.
On to “TATTAATCTTTTTTTAAACAAAAAATTAAGCAAATT [CACACA_negctrl_site884]”, for which the “gcPBM binding intensity (ln)” value is 9.15.
Take “TATATATAATATATATGTACATAATATATTTTATAT [XGTACX_site2909]”: the “gcPBM binding intensity (ln)” value came to 9.52.
The figure for “TAAAACACTCATGGCACACATAAAACATTTTTATGA [CACACA_site3574]” is 9.77; for “TCGTGTTTTAAAAAAATGAAGAAAAGTAAAAAAAAA [XGTACX_negctrl_site23]” it is 9.48.
Consider “ATGATAGTAATTAATAGTACTTTTTTTGATACAAAA [XGTACX_site4288]”, for which the “gcPBM binding intensity (ln)” value amounted to 9.55.
Take “TAATATGAATATATATGTACATACAATTTGTTATAT [XGTACX_site5815]”: the “gcPBM binding intensity (ln)” value was determined as 9.78.
As for “ATTAAATGTATGACTTGTACATAAAATAAAAAAAAA [XGTACX_site6555]”, the “gcPBM binding intensity (ln)” value amounted to 9.73.
Turning to “TAAAGATATAAATGCACACGTATTAAAAAAAAAATA [CACACA_site952]”, the “gcPBM binding intensity (ln)” value came to 9.94.
For “TTATCATTACATGAGTGTACATTATTATATTTTTTT [XGTACX_site7845]”, the “gcPBM binding intensity (ln)” value amounted to 9.87.
In the case of “ATATATTTTTTTTTTTGTACGTATATTTATATAATT [XGTACX_site8719]”, the “gcPBM binding intensity (ln)” value was determined as 9.8.
“GAAAGAAAGAAAGAAAGTACATATAAAAATATACAT [XGTACX_site7299]”: the “gcPBM binding intensity (ln)” value turned out to be 9.51.
The result for “CAAGAATTAAAATAAAGTACAAAAGTAACAACTTTT [XGTACX_site1474]” reads 9.69; that for “AAAAAAAAGGAAAAGGGTACAAAACCATACTTACAT [XGTACX_site4783]”, 9.81.
